# From the supplement of paper PMC8728848
# This is one part of the list.
# How the values were obtained:
# Assay in all cases: glycan array binding signal (z-score within array); higher = stronger binding
# Conditions in all cases: glycan notation: IUPAC condensed, linker removed
# [1] = biological target: Gal(b1-4)GlcNAc(a1-6)Gal(b1-4)GlcNAc
# Method in brief: (§1)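 Glycan array data were curated from 3228 arrays in the Consortium for Functional Glycomics database and kept only where the protein sequence was available. Glycan names were converted to IUPAC-condensed notation, and columns mapping to the same glycan were averaged. The binding signal is a within-array Z-score, averaged across arrays of the same protein sequence at different concentrations or buffers and across linkers. Negative Z-scores can be read as non-binding.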
# Gal(b1-4)GlcNAc(b1-2)Man = biological target: Gal(b1-4)GlcNAc(b1-2)Man
# Method in brief: as §1
# [2] = biological target: Gal(b1-4)GlcNAc(b1-2)Man(a1-3)Man(b1-4)GlcNAc(b1-4)GlcNAc
# Method in brief: as §1
# [3] = biological target: Gal(b1-4)GlcNAc(b1-2)Man(a1-3)[Gal(b1-4)GlcNAc(b1-2)Man(a1-6)]Man(b1-4)GlcNAc(b1-4)GlcNAc
# Method in brief: as §1
# [4] = biological target: Gal(b1-4)GlcNAc(b1-2)Man(a1-3)[Gal(b1-4)GlcNAc(b1-2)Man(a1-6)]Man(b1-4)GlcNAc(b1-4)[Fuc(a1-6)]GlcNAc
# Method in brief: as §1
# [5] = biological target: Gal(b1-4)GlcNAc(b1-2)Man(a1-3)[Gal(b1-4)GlcNAc(b1-2)Man(a1-6)][Gal(b1-4)GlcNAc(b1-4)]Man(b1-4)GlcNAc(b1-4)[Fuc(a1-6)]GlcNAc
# Method in brief: as §1
# [6] = biological target: Gal(b1-4)GlcNAc(b1-2)Man(a1-3)[Gal(b1-4)GlcNAc(b1-2)Man(a1-6)][GlcNAc(b1-4)]Man(b1-4)GlcNAc(b1-4)[Fuc(a1-6)]GlcNAc
# Method in brief: as §1
# [7] = biological target: Gal(b1-4)GlcNAc(b1-2)Man(a1-3)[Gal(b1-4)GlcNAc(b1-2)][GlcNAc(b1-4)]Man(b1-4)GlcNAc(b1-4)GlcNAc
# Method in brief: as §1
# [8] = biological target: Gal(b1-4)GlcNAc(b1-2)Man(a1-3)[GlcNAc(b1-2)Man(a1-6)]Man(b1-4)GlcNAc(b1-4)GlcNAc
# Method in brief: as §1
# [9] = biological target: Gal(b1-4)GlcNAc(b1-2)Man(a1-3)[GlcNAc(b1-4)][Gal(b1-4)GlcNAc(b1-2)Man(a1-6)]Man(b1-4)GlcNAc(b1-4)GlcNAc
# Method in brief: as §1
# [10] = biological target: Gal(b1-4)GlcNAc(b1-2)Man(a1-3)[Man(a1-6)]Man(b1-4)GlcNAc(b1-4)GlcNAc
# Method in brief: as §1
# [11] = biological target: Gal(b1-4)GlcNAc(b1-2)Man(a1-6)Man(b1-4)GlcNAc(b1-4)GlcNAc
# Method in brief: as §1
# [12] = biological target: Gal(b1-4)GlcNAc(b1-2)Man(a1-6)[GlcNAc(b1-2)Man(a1-3)]Man(b1-4)GlcNAc(b1-4)GlcNAc
# Method in brief: as §1
# [13] = biological target: Gal(b1-4)GlcNAc(b1-2)Man(a1-6)[Man(a1-3)]Man(b1-4)GlcNAc(b1-4)GlcNAc
# Method in brief: as §1
# [14] = biological target: Gal(b1-4)GlcNAc(b1-2)[Gal(b1-4)GlcNAc(b1-4)]Man(a1-3)[Gal(b1-4)GlcNAc(b1-2)Man(a1-6)]Man(b1-4)GlcNAc(b1-4)GlcNAc
# Method in brief: as §1
# [15] = biological target: Gal(b1-4)GlcNAc(b1-2)[Gal(b1-4)GlcNAc(b1-4)]Man(a1-3)[Gal(b1-4)GlcNAc(b1-2)[Gal(b1-4)GlcNAc(b1-6)]Man(a1-6)]Man(b1-4)GlcNAc(b1-4)GlcNAc
# Method in brief: as §1
# [16] = biological target: Gal(b1-4)GlcNAc(b1-2)[Gal(b1-4)GlcNAc(b1-4)]Man(a1-3)[GlcNAc(b1-4)][Gal(b1-4)GlcNAc(b1-2)Man(a1-6)]Man(b1-4)GlcNAc(b1-4)GlcNAc
# Method in brief: as §1
# [17] = biological target: Gal(b1-4)GlcNAc(b1-2)[Gal(b1-4)GlcNAc(b1-4)]Man(a1-3)[GlcNAc(b1-4)][Gal(b1-4)GlcNAc(b1-2)[Gal(b1-4)GlcNAc(b1-6)]Man(a1-6)]Man(b1-4)GlcNAc(b1-4)GlcNAc
# Method in brief: as §1
# [18] = biological target: Gal(b1-4)GlcNAc(b1-2)[Gal(b1-4)GlcNAc(b1-6)]Man(a1-6)[Gal(b1-4)GlcNAc(b1-2)Man(a1-3)]Man(b1-4)GlcNAc(b1-4)GlcNAc
# Method in brief: as §1
# [19] = biological target: Gal(b1-4)GlcNAc(b1-2)[Gal(b1-4)GlcNAc(b1-6)]Man(a1-6)[Gal(b1-4)GlcNAc(b1-2)Man(a1-3)]Man(b1-4)GlcNAc(b1-4)[Fuc(a1-6)]GlcNAc
# Method in brief: as §1
# [20] = biological target: Gal(b1-4)GlcNAc(b1-2)[Gal(b1-4)GlcNAc(b1-6)]Man(a1-6)[GlcNAc(b1-4)][Gal(b1-4)GlcNAc(b1-2)Man(a1-3)]Man(b1-4)GlcNAc(b1-4)GlcNAc
# Method in brief: as §1
# [21] = biological target: Gal(b1-4)GlcNAc(b1-2)[Gal(b1-4)GlcNAc(b1-6)]Man(a1-6)[GlcNAc(b1-4)][Gal(b1-4)GlcNAc(b1-2)[Gal(b1-4)GlcNAc(b1-4)]Man(a1-3)]Man(b1-4)GlcNAc(b1-4)[Fuc(a1-6)]GlcNAc
# Method in brief: as §1
# [22] = biological target: Gal(b1-4)GlcNAc(b1-3)Gal(b1-3)GalNAc
# Method in brief: as §1
# [23] = biological target: Gal(b1-4)GlcNAc(b1-3)Gal(b1-3)GlcNAc
# Method in brief: as §1
# [24] = biological target: Gal(b1-4)GlcNAc(b1-3)Gal(b1-4)Glc
# Method in brief: as §1
# [25] = biological target: Gal(b1-4)GlcNAc(b1-3)Gal(b1-4)GlcNAc
# Method in brief: as §1
# [26] = biological target: Gal(b1-4)GlcNAc(b1-3)Gal(b1-4)GlcNAc(b1-2)Man(a1-3)[Gal(b1-4)GlcNAc(b1-3)Gal(b1-4)GlcNAc(b1-2)Man(a1-6)]Man(b1-4)GlcNAc(b1-4)GlcNAc
# Method in brief: as §1
# [27] = biological target: Gal(b1-4)GlcNAc(b1-3)Gal(b1-4)GlcNAc(b1-2)Man(a1-3)[Gal(b1-4)GlcNAc(b1-3)Gal(b1-4)GlcNAc(b1-2)Man(a1-6)]Man(b1-4)GlcNAc(b1-4)[Fuc(a1-6)]GlcNAc
# Method in brief: as §1
# [28] = biological target: Gal(b1-4)GlcNAc(b1-3)Gal(b1-4)GlcNAc(b1-2)[Gal(b1-4)GlcNAc(b1-3)Gal(b1-4)GlcNAc(b1-6)]Man(a1-6)[Gal(b1-4)GlcNAc(b1-3)Gal(b1-4)GlcNAc(b1-2)Man(a1-3)]Man(b1-4)GlcNAc(b1-4)GlcNAc
# Method in brief: as §1
# [29] = biological target: Gal(b1-4)GlcNAc(b1-3)Gal(b1-4)GlcNAc(b1-2)[Gal(b1-4)GlcNAc(b1-3)Gal(b1-4)GlcNAc(b1-6)]Man(a1-6)[Gal(b1-4)GlcNAc(b1-3)Gal(b1-4)GlcNAc(b1-2)Man(a1-3)]Man(b1-4)GlcNAc(b1-4)[Fuc(a1-6)]GlcNAc
# Method in brief: as §1
# [30] = biological target: Gal(b1-4)GlcNAc(b1-3)Gal(b1-4)GlcNAc(b1-3)Gal(b1-4)GlcNAc
# Method in brief: as §1
# [31] = biological target: Gal(b1-4)GlcNAc(b1-3)Gal(b1-4)GlcNAc(b1-3)Gal(b1-4)GlcNAc(b1-2)Man(a1-3)[Gal(b1-4)GlcNAc(b1-3)Gal(b1-4)GlcNAc(b1-3)Gal(b1-4)GlcNAc(b1-2)Man(a1-6)]Man(b1-4)GlcNAc(b1-4)GlcNAc
# Method in brief: as §1
# [32] = biological target: Gal(b1-4)GlcNAc(b1-3)Gal(b1-4)GlcNAc(b1-3)Gal(b1-4)GlcNAc(b1-2)Man(a1-3)[Gal(b1-4)GlcNAc(b1-3)Gal(b1-4)GlcNAc(b1-3)Gal(b1-4)GlcNAc(b1-2)Man(a1-6)]Man(b1-4)GlcNAc(b1-4)[Fuc(a1-6)]GlcNAc
# Method in brief: as §1
# [33] = biological target: Gal(b1-4)GlcNAc(b1-3)Gal(b1-4)GlcNAc(b1-3)Gal(b1-4)GlcNAc(b1-2)[Gal(b1-4)GlcNAc(b1-3)Gal(b1-4)GlcNAc(b1-3)Gal(b1-4)GlcNAc(b1-6)]Man(a1-6)[Gal(b1-4)GlcNAc(b1-3)Gal(b1-4)GlcNAc(b1-3)Gal(b1-4)GlcNAc(b1-2)Man(a1-3)]Man(b1-4)GlcNAc(b1-4)[Fuc(a1-6)]GlcNAc
# Method in brief: as §1
# [34] = biological target: Gal(b1-4)GlcNAc(b1-3)Gal(b1-4)GlcNAc(b1-3)Gal(b1-4)GlcNAc(b1-3)Gal(b1-4)GlcNAc(b1-2)Man(a1-3)[Gal(b1-4)GlcNAc(b1-3)Gal(b1-4)GlcNAc(b1-3)Gal(b1-4)GlcNAc(b1-3)Gal(b1-4)GlcNAc(b1-2)Man(a1-6)]Man(b1-4)GlcNAc(b1-4)GlcNAc
# Method in brief: as §1
# [35] = biological target: Gal(b1-4)GlcNAc(b1-3)Gal(b1-4)GlcNAc(b1-3)Gal(b1-4)GlcNAc(b1-3)Gal(b1-4)GlcNAc(b1-2)Man(a1-3)[Gal(b1-4)GlcNAc(b1-3)Gal(b1-4)GlcNAc(b1-3)Gal(b1-4)GlcNAc(b1-3)Gal(b1-4)GlcNAc(b1-2)Man(a1-6)]Man(b1-4)GlcNAc(b1-4)[Fuc(a1-6)]GlcNAc
# Method in brief: as §1
# [36] = biological target: Gal(b1-4)GlcNAc(b1-3)Gal(b1-4)GlcNAc(b1-3)Gal(b1-4)GlcNAc(b1-3)Gal(b1-4)GlcNAc(b1-2)[Gal(b1-4)GlcNAc(b1-3)Gal(b1-4)GlcNAc(b1-3)Gal(b1-4)GlcNAc(b1-3)Gal(b1-4)GlcNAc(b1-6)]Man(a1-6)[Gal(b1-4)GlcNAc(b1-3)Gal(b1-4)GlcNAc(b1-3)Gal(b1-4)GlcNAc(b1-3)Gal(b1-4)GlcNAc(b1-2)Man(a1-3)]Man(b1-4)GlcNAc(b1-4)[Fuc(a1-6)]GlcNAc
# Method in brief: as §1
binder,measurement,setting,value
PpFlo1 (Pichia pastoris) (protein) MGSSHHHHHHSSGLVPRGSHMQESGDGDISDSAYACDIDATRYDGFNATIYEFQPGDGRLTRDPVFMSTGYLNRTQLHSITGVTDPGFSIYTPGVPTTTLYGIPNVNWENLLLELKGYFRAEVSGDYGLSLRNIDDSAILFFGKETAFQCCNENSISNEASTDYSLFTIFRQEGDETTNLDSFTYTQYLEAGKYYPVRTFFVNIERHAVFNFTMTLPDGTELTDFHNYIYQFGALDEEQCQA,glycan array binding signal (z-score),[1],0.435
same,glycan array binding signal (z-score),Gal(b1-4)GlcNAc(b1-2)Man,0.008
same,glycan array binding signal (z-score),[2],0.264
same,glycan array binding signal (z-score),[3],-0.032
same,glycan array binding signal (z-score),[4],-0.323
same,glycan array binding signal (z-score),[5],0.235
same,glycan array binding signal (z-score),[6],-0.115
same,glycan array binding signal (z-score),[7],-0.774
same,glycan array binding signal (z-score),[8],0.575
same,glycan array binding signal (z-score),[9],-0.214
same,glycan array binding signal (z-score),[10],1.6
same,glycan array binding signal (z-score),[11],0.002
same,glycan array binding signal (z-score),[12],0.086
same,glycan array binding signal (z-score),[13],-0.185
same,glycan array binding signal (z-score),[14],0.116
same,glycan array binding signal (z-score),[15],-0.501
same,glycan array binding signal (z-score),[16],-0.266
same,glycan array binding signal (z-score),[17],-0.171
same,glycan array binding signal (z-score),[18],-0.079
same,glycan array binding signal (z-score),[19],-0.022
same,glycan array binding signal (z-score),[20],-0.527
same,glycan array binding signal (z-score),[21],-0.081
same,glycan array binding signal (z-score),[22],-0.365
same,glycan array binding signal (z-score),[23],0.378
same,glycan array binding signal (z-score),[24],-0.3
same,glycan array binding signal (z-score),[25],-0.278
same,glycan array binding signal (z-score),[26],0.578
same,glycan array binding signal (z-score),[27],0.168
same,glycan array binding signal (z-score),[28],0.257
same,glycan array binding signal (z-score),[29],0.048
same,glycan array binding signal (z-score),[30],0.361
same,glycan array binding signal (z-score),[31],0.867
same,glycan array binding signal (z-score),[32],-0.205
same,glycan array binding signal (z-score),[33],0.61
same,glycan array binding signal (z-score),[34],0.305
same,glycan array binding signal (z-score),[35],0.619
same,glycan array binding signal (z-score),[36],-0.216
